Data taken from the supplement of paper PMC3334620.
Whole data set: some 33,000 sequences, median “E-score (-0.5 to 0.5)” near -0.012, cut for the highest 2% near 0.27. Some of the results follow.

What follows are sequences tested against T1, Vhr1 (UniProt P40522) (assay: PBM E-score (8-mer binding enrichment) (E-score (-0.5 to 0.5)); higher = stronger / more preferred TF binding; most listed sequences are background and not binding sites). Settings: protein concentration: 200 nM; construct: GST-full length.
T1 sequence: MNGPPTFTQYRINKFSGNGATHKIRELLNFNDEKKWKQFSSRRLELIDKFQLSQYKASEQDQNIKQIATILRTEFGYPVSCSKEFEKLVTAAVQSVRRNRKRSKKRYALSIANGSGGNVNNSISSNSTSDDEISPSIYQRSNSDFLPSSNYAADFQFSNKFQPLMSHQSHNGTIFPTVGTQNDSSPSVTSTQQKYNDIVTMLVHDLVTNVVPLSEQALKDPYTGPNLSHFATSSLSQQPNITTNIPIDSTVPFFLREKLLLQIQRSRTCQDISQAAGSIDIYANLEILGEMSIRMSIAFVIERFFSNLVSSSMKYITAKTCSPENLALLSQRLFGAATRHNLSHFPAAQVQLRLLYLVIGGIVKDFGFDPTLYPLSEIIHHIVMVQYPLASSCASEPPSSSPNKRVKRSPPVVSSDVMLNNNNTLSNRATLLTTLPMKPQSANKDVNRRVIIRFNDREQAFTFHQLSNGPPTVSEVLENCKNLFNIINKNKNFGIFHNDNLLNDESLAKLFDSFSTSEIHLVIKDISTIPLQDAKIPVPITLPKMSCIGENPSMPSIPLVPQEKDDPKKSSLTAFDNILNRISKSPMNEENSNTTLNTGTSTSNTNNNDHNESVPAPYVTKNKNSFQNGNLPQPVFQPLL
Procedure, shortened: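 GST-tagged yeast TFs (full-length or DNA-binding domain) were made by PURExpress in vitro transcription/translation and applied at about 100-200 nM to universal all-10-mer Agilent arrays. The arrays were made double-stranded by primer extension, on fresh or once-stripped slides. Bound protein was detected with fluorescent anti-GST, and scans were normalised with masliner. Each ungapped eight-base word, pooled with its reverse complement, received an E-score (modified Wilcoxon-Mann-Whitney statistic) from the Universal PBM Analysis Suite.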

Sequence	PBM E-score
CAAGGTGA	0.156
ATAACCGA	-0.0216
GCAGTGCC	-0.245
ATATGTCA	0.0767
GGTCACGA	0.09
CGGCAGAA	-0.126
TGGAACCA	0.21
TGACGCCA	-0.0528
GAGCCGAC	-0.00166
CGCCTATA	-0.135
GCCTTAGA	-0.114
CCTACACC	-0.0776
CATATGGA	0.105
AAATTAAT	-0.159
GACGGAGA	-0.0493
ACTAACCC	0.16
AGTCATCG	0.44
TCGTGTAA	-0.00574
ATTGCCCA	-0.113
CTGAGAAG	-0.193
GCGCCAGA	-0.139
TCCATTAA	-0.0449
AAAGTGCG	-0.158
GTATCCAC	0.0538
TTAGCAAA	-0.0673

Sequence	PBM E-score
GACATAGA	0.029
CTCAAAAG	-0.0415
CGTATGCC	-0.195
TACCGCCA	0.0567
TGTACAAA	-0.0832
AGCTCTGC	-0.128
AGCTTGCG	-0.121
AATGTAGA	-0.123
AGAGTTAG	-0.0264
CTGTATAA	0.0752
ATTCATAG	0.0981
GCTTGTAC	0.155
CAATTGGC	-0.0522
ACCGAACA	0.056
CCGGAGCA	-0.14
GACTCTTA	0.266
CCCTGAAC	0.0992
CTCTGAGA	-0.00698
AGGCGTCC	-0.128
GGCGGAAC	-0.0937
CATCCAGC	0.11
CCATGGCC	-0.0122
AACAAAAG	-0.284
GAGCTAGA	-0.219
CGTGTATA	0.0286

Sequence	PBM E-score
ATAGCGCA	-0.186
ATGTCTTG	0.0571
AAGCGAAG	-0.0409
AGTGAATG	0.0791
ACAATCAT	0.231
GCGCAAGA	-0.063
TACGATCA	0.0675
CTGCCTTC	-0.238
GCTCACCC	0.265
CGGGTCAG	0.204
CGCGAAAG	-0.022
CTTACTAA	-0.123
GATGAGAC	0.118
CCTATTGA	-0.165
AGACCTAT	0.0289
AAGCCCAT	0.0871
AAGGCCAA	-0.346
AACATCAT	0.148
ACCGTCCG	-0.0548
AATTTTCA	-0.196
GACACTCA	0.0958
CCACTCTA	0.0236
AAATATTT	-0.35
CTGCTGGC	-0.145
TAATGCGA	0.0305

Sequence	PBM E-score
CTTTCACC	-0.204
ATATACCG	0.247
CGCAGCTA	0.0366
AGTACACC	0.103
ACTCCACT	-0.032
CTGCCAGA	-0.145
ACAGCTTG	0.0709
CCCGAACC	0.0864
CAAACCAG	0.0311
CCTAAGCC	-0.229
CACACGCA	0.116
CACACCGG	0.147
CCGGTGCG	0.186
CAGTGGTC	-0.0292
GGTCCTGA	0.0276
GGTAACAC	0.0705
CCTGGTAG	-0.0901
CCTTATAC	-0.0569
CAGTCACG	0.365
GACTAGAC	0.0254
CAAACACG	0.033
TGCGCTAA	0.0119
GCCGTTCC	-0.0727
GAAACCAC	0.0416
ACGTGCAA	-0.201

Sequence	PBM E-score
GTTACGAA	-0.147
CAGCCCGC	0.0872
AAACAATA	0.119
GTCTCGAA	-0.146
AGTCTCTC	0.0118
ATTGGCAG	0.0108
CAGCAAAG	-0.0331
TATCTTGA	-0.0235
ACGCTGCC	-0.0387
CTTGAACA	-0.209
CAAGAGCC	0.05
AAGCCGGA	0.0929
AACGTCGC	-0.0398
CACTGGGC	-0.162
GCTAATCC	0.0989
CAAGATCG	-0.139
CTGTGGAA	-0.0565
CTGTAAGC	-0.0741
GGTGCATA	0.0499
TTGAGAAA	-0.096
GCGGACCA	0.213
ATGTAATA	0.201
TACAAGGA	0.0172
GGCTCCTA	-0.136
AAATTCTT	-0.278

Sequence	PBM E-score
CTTCACCC	0.192
TATCTGCA	-0.185
ACCTCCCG	0.0173
AATCCGGT	0.0561
CAGGGGAC	-0.0275
CGATGGCG	0.00489
AGCGGCAA	-0.136
GAGCCCCA	-0.221
AATTGAAC	-0.226
CCATACAG	0.191
ACCCCTGG	-0.0378
ACTATAGA	0.0018
GTCACGCA	0.0821
ACCACCGG	-0.0769
CAGCAAGC	-0.0187
ACTCACTC	0.254
CACCACTC	0.0971
CCATACTC	0.155
AAGTTGAA	-0.151
CATTTGCA	-0.118
AGAACCTA	-0.134
ATGTCTCG	0.135
AGTTCAAG	-0.168
ACCATCTA	-0.138
GCCTATGA	-0.141

Sequence	PBM E-score
AGCGCGCA	0.189
AATCCCTC	-0.164
CGAGCTTC	0.0561
CCCAAGAA	-0.093
ATAACTCG	0.0214
GTTATAAC	0.0717
ACCTTACT	-0.129
TAAGGCGA	-0.239
GATGGATA	0.0867
AATGCGAA	-0.0712
GTACGTAA	-0.131
AACAGAGT	0.131
GCCATAAA	-0.106
AATCCAAT	0.0231
GGTAAACC	-0.137
AAACACCT	0.0781
TATCGTGA	-0.0142
AGGTGTAC	-0.0435
AGTTCCAT	-0.0164
GAGTACCA	0.172
GCGCTGAA	-0.203
AAGAAAAA	-0.219
